Laboratory results taken from PubChem BioAssay AID2147 (National Center for Advancing Translational Sciences (NCATS), 2009).
In all, about 230,000 compounds went through this assay and about 3,600 (1.6%) were called active. The inconclusive results got no clear call from the source; some entries with a clear call stand among them for comparison. The call rests on the fitted dose curve; in most records, active means well fitted inhibition curve with a large enough effect (not every such curve was filed as active); inconclusive means small, poorly fitted or top-dose-only effect, or another doubt; inactive means no such curve, though single readings can be large or run the other way. Potencies beside an inconclusive call are fits to weak or partial responses and may not hold up.

Biological target: Lysine-specific demethylase 4E (Homo sapiens) (UniProt B2RXH2)
Chain of UniProt B2RXH2 (B2RXH2 whole entry, looked up, the tested form may be a part): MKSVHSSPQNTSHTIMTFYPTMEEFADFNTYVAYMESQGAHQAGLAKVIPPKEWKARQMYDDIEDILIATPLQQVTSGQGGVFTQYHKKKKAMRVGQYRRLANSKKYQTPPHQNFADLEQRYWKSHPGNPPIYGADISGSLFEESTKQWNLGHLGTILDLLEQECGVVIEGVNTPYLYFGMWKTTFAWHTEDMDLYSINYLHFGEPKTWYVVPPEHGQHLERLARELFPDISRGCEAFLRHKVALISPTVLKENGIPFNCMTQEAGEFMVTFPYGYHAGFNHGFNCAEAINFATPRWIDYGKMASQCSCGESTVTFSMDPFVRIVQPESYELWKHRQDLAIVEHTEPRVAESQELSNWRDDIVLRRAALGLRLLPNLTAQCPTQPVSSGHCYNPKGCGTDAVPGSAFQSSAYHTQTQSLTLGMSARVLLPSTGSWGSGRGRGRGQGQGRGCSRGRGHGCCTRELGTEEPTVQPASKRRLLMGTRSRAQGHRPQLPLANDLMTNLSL
Experiment: qHTS Assay for Inhibitors of Human Jumonji Domain Containing 2E (JMJD2E)
Conditions: JMJD2E catalytic domain, FDH-coupled NADH fluorescence (FDH is formaldehyde dehydrogenase); series mostly up to 57.1 µM
Further: nearly all actives have a fitted effect of over 50% in size.
Potency means the concentration at half of the fitted maximal effect; tags describe the fitted curve by direction and shape.

Row | Compound | Potency
1 | Cc1nn(-c2ccccc2)c(C)c1/C=N/NC(=O)c1ccccc1NS(=O)(=O)c1cccs1 | inconclusive: 28.2 µM [inhibitor, single point]
2 | Cc1cc(=O)c2cc3nc(-c4cccnc4)oc3c(Br)c2o1 | inconclusive: 39.8 µM [inhibitor, single point]
3 | C/C=C(/C)C(=O)O[C@@H]1c2c(ccc3ccc(=O)oc23)O[C@@H]1C(C)(C)OC(=O)/C(C)=C\C | inconclusive: 39.8 µM [inhibitor, single point]
4 | CC(C)COc1ccc(-c2nnc(-c3ccco3)o2)cc1 | inconclusive: 35.5 µM [inhibitor, partial curve]
5 | CCOc1ccc(Cc2c(Cl)nc(N)nc2Cl)cc1 | inconclusive: 20 µM [inhibitor, single point]
6 | O=C(NN=C1CCC(c2ccccc2)CC1)c1ccccc1-n1cccc1 (stereo not drawn) | inactive
7 | Cc1ccc(C(=O)Nc2ccc3nccnc3c2)cc1 | inconclusive: 25.1 µM [inhibitor, partial curve]
8 | COC(=O)/C(C#N)=C/c1c(-c2ccccc2)nc2n1CCS2 | inconclusive: 0.0056 µM [inhibitor, full curve, poor fit]
9 | O=c1oc2ccccc2c2c1C(c1ccc(Cl)cc1)Nc1ccc3ccccc3c1-2 (stereo not drawn) | inconclusive: 7.08 µM [inhibitor, partial curve]
10 | Cc1nc(C)n(CC(O)COc2ccc3cc(Br)ccc3c2)n1 (stereo not drawn) | inactive
11 | N#Cc1c(N)n(-c2ccc(C(=O)O)cc2)c2nc3ccccc3nc12 | inconclusive: 28.2 µM [inhibitor, partial curve]
12 | CC(C)(C)NS(=O)(=O)c1ccc2c(c1)oc(=O)c1cc(S(=O)(=O)NC(C)(C)C)ccc12 | inconclusive: 31.6 µM [inhibitor, partial curve]
13 | CC(C)(C)c1csc(NC(=O)c2ccc(Cl)s2)n1 | inconclusive: 35.5 µM [inhibitor, single point]
14 | Nc1nc2nc(-c3ccccc3)cc(=O)n2[nH]1 | inconclusive: 31.6 µM [inhibitor, partial curve]
15 | O=C1Nc2ccccc2C12OCC(COc1ccc(Cl)cc1)O2 (stereo not drawn) | inactive
16 | CSc1ccc(C2C(C#N)=C(N)N(c3ccccc3)C3=C2C(=O)CCC3)cc1 (stereo not drawn) | inconclusive: 31.6 µM [inhibitor, single point]
17 | CCOc1ccccc1CNCc1ccc(C(=O)O)cc1 | inconclusive: 35.5 µM [inhibitor, single point]
18 | CCOc1ccc2[nH]c(=O)c(CN(CC3COCCO3)C(=O)c3ccc(C)cc3)cc2c1 (stereo not drawn) | inconclusive: 25.1 µM [inhibitor, partial curve]
19 | Cc1cc(C(=O)Nc2sc(C)c(-c3ccc(F)cc3)c2C(N)=O)no1 | inconclusive: 22.4 µM [inhibitor, partial curve]
20 | COc1cc2c(cc1OC)CN(CCC(=O)c1ccc(Br)cc1)CC2 | inconclusive: 28.2 µM [inhibitor, partial curve]
21 | CCc1cccc(C)c1NC(=O)CSc1nnc(-c2cc3cc(Br)ccc3o2)n1CC | inconclusive: 35.5 µM [inhibitor, single point]
22 | O=C(CCNS(=O)(=O)c1ccc(Br)cc1)NCc1ccc2c(c1)OCO2 | inconclusive: 39.8 µM [inhibitor, single point]
23 | COc1ccc(C2Nc3ccccc3C(=O)N2NS(=O)(=O)c2ccccc2)cc1OC (stereo not drawn) | inconclusive: 25.1 µM [inhibitor, partial curve]

Row | Compound | Potency
24 | Cc1ccccc1N/N=C/c1ccc(C#N)cc1 | inconclusive: 35.5 µM [inhibitor, single point]
25 | Nc1nc2nc(-c3cccs3)cc(C(F)(F)F)n2n1 | inconclusive: 25.1 µM [inhibitor, partial curve]
26 | Cc1cccnc1NC1(C(F)(F)F)N=C(c2ccccc2)NC1=O (stereo not drawn) | inactive
27 | O=C(CNC(=O)c1cccc(F)c1)OCc1cc(=O)n2cc(Br)ccc2n1 | inconclusive: 39.8 µM [inhibitor, single point]
28 | COC(=O)c1ccccc1NC(=O)c1cc(OC)cc(OC)c1 | inconclusive: 39.8 µM [inhibitor, single point]
29 | CC(C)SCC(=O)Nc1ncc2c(n1)-c1ccccc1CC2 | inconclusive: 31.6 µM [inhibitor, partial curve]
30 | Cn1cccc1CC(=O)NNC(=S)NC(=O)c1ccc(F)cc1 | inconclusive: 39.8 µM [inhibitor, single point]
31 | COc1cccc(NC(=O)CSc2nnc(-c3ccc(C)cc3)o2)c1 | inconclusive: 39.8 µM [inhibitor, single point]
32 | N#Cc1nc(-c2ccco2)oc1N1CCCC1 | inconclusive: 22.4 µM [inhibitor, partial curve]
33 | COc1ccc(N(C)C(=O)c2cc3c(s2)-c2ccccc2S(=O)(=O)C3)cc1 | inactive
34 | OCCNCCOc1ccccc1-c1ccccc1 | inactive
35 | O=C(CCN1CCOCC1)N/N=C/c1cc([N+](=O)[O-])ccc1OC(F)F | inactive
36 | Clc1ccc2[nH]c3c(N4CCC5(CC4)OCCO5)ncnc3c2c1 | inconclusive: 28.2 µM [inhibitor, partial curve]
37 | CCOc1cc(S(=O)(=O)NC2CC2)c(OCC)cc1-n1cnnn1 | inconclusive: 28.2 µM [inhibitor, partial curve]
38 | OCCCNc1nccc(-c2cc(Nc3cccc(Cl)c3)ncn2)n1 | inconclusive: 39.8 µM [inhibitor, single point]
39 | COCCCNc1oc(-c2ccccc2Cl)nc1C#N | inconclusive: 35.5 µM [inhibitor, single point]
40 | O=C1CCCN1CC1CCN(Cc2nc(CC3CC3)no2)CC1 | inconclusive: 0.0224 µM [inhibitor, full curve, poor fit]
41 | NC(=O)c1c(/N=C/c2cccnc2)sc2c1CCCC2 | inconclusive: 28.2 µM [inhibitor, single point]
42 | COc1ccc(-n2nc(C(=O)NCc3ccco3)c3c4ccccc4n(C)c3c2=O)cc1Cl | inconclusive: 3.55 µM [inhibitor, single point]
43 | CCOc1ccccc1Oc1c(C)oc2c(CN3CCN(CCO)CC3)c(O)ccc2c1=O | inconclusive: 31.6 µM [inhibitor, partial curve]
44 | O=C(CSc1nc2c(sc3ccccc32)c(=O)n1CCc1ccccc1)NCc1ccco1 | inactive
45 | Cc1onc(-c2ccccc2)c1C(=O)NCc1ccco1 | inactive
46 | CSc1nc(NCc2ccccc2)c2c3c(sc2n1)CN(C)CC3 | inconclusive: 31.6 µM [inhibitor, partial curve]

Row | Compound | Potency
47 | FC(F)(F)c1cccc(CN2CCC(c3cc(-c4cccs4)n[nH]3)CC2)c1 | inconclusive: 28.2 µM [inhibitor, single point]
48 | O=C(CCN1C(=O)C2C3C=CC(C3)C2C1=O)Nc1ccc2ncccc2c1 (stereo not drawn) | inconclusive: 31.6 µM [inhibitor, partial curve]
49 | CC(=O)N1CCC2(CC1)C/C(=N\NC(=S)Nc1ccccc1C)c1cc(O)ccc1O2 | inconclusive: 25.1 µM [inhibitor, partial curve]
50 | CSc1ccc(C2C(C#N)=C(N)Oc3cc4c(cc32)OCO4)cc1 (stereo not drawn) | inconclusive: 39.8 µM [inhibitor, single point]
51 | O=C(C(Cc1ccc(Cl)cc1)NS(=O)(=O)c1ccccc1)N1CC[C@@]2(O)CCCC[C@H]2C1 (stereo partly drawn) | inconclusive: 39.8 µM [inhibitor, single point]
52 | O=C(NCCN1C(=O)C2C3C=CC(C3)C2C1=O)Nc1cccnc1 (stereo not drawn) | inactive
53 | COc1cccc(C2c3[nH]c4ccccc4c3CCN2Cc2ncc[nH]2)c1 (stereo not drawn) | inconclusive: 39.8 µM [inhibitor, single point]
54 | CN(Cc1nc2c(s1)CCCC2)C(=O)CCc1nnc(-c2ccc3c(c2)OCO3)o1 | inconclusive: 39.8 µM [inhibitor, single point]
55 | O=C1Nc2ccccc2C(=O)C1(Cl)Cc1ccccc1 (stereo not drawn) | inconclusive: 31.6 µM [inhibitor, single point]
56 | O=C(CSc1ncnc2nc[nH]c12)Nc1ccccc1C(F)(F)F | inactive
57 | N#Cc1cc(-c2ccccc2)oc1/N=C/c1ccccc1O | inactive
58 | CC(C)N(C1=N/C(=C\c2ccco2)C(=O)N1c1ccccc1)C(C)C | inconclusive: 28.2 µM [inhibitor, single point]
59 | CC(C)(C)c1ccc(NC(=S)NCc2cccs2)cc1 | inactive
60 | O=C(N/N=C/c1ccccn1)c1cc(-c2cccc3ccccc23)n[nH]1 | inconclusive: 35.5 µM [inhibitor, single point]
61 | Clc1ccc(C(c2nnnn2CCc2ccccc2)N2CCSCC2)cc1 (stereo not drawn) | inconclusive: 39.8 µM [inhibitor, single point]
62 | CCCCNC(=O)Cc1c(O)c2ccccc2[nH]c1=O | inconclusive: 20 µM [inhibitor, partial curve]
63 | CCCCC(=O)Nc1cccc(C(C)O)c1 (stereo not drawn) | inconclusive: 7.08 µM [inhibitor, single point]
64 | CC1CCCC(C)N1S(=O)(=O)c1ccc(NC(=O)CNCC2CCCO2)cc1 (stereo not drawn) | inactive
65 | Cc1nc(NC(=O)c2ccc(Cl)cc2)nc2cc3c(cc12)OCO3 | inconclusive: 35.5 µM [inhibitor, single point]
66 | O=C1Nc2ccccc2N=C(c2ccccc2)C1Br (stereo not drawn) | inconclusive: 28.2 µM [inhibitor, partial curve]
67 | CCOC(=O)c1c(C)[nH]c(=S)c(C#N)c1-c1ccccc1 | inactive
68 | Oc1ccc2ccccc2c1CNc1cnc2ccccc2c1 | inconclusive: 3.16 µM [inhibitor, partial curve]
